# Measured values taken from publication PMC4336329 (PLoS ONE, 2015).
# In all, about 310,000 compounds went through this assay and about 14,000 (4.5%) showed an effect of 50% or more. Effects have a minus sign here. The list shows a part of the results.
# Target: human ether-à-go-go-related gene (hERG) potassium channel (human, UniProt Q12809)
# Assay: primary screen, population patch clamp on CHO cells stably expressing hERG
# 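Further: peak tail current of the secondary pulse compared with the same well before compound.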
# human ether-à-go-go-related gene (hERG) potassium channel, sequence (Q12809 whole entry, looked up): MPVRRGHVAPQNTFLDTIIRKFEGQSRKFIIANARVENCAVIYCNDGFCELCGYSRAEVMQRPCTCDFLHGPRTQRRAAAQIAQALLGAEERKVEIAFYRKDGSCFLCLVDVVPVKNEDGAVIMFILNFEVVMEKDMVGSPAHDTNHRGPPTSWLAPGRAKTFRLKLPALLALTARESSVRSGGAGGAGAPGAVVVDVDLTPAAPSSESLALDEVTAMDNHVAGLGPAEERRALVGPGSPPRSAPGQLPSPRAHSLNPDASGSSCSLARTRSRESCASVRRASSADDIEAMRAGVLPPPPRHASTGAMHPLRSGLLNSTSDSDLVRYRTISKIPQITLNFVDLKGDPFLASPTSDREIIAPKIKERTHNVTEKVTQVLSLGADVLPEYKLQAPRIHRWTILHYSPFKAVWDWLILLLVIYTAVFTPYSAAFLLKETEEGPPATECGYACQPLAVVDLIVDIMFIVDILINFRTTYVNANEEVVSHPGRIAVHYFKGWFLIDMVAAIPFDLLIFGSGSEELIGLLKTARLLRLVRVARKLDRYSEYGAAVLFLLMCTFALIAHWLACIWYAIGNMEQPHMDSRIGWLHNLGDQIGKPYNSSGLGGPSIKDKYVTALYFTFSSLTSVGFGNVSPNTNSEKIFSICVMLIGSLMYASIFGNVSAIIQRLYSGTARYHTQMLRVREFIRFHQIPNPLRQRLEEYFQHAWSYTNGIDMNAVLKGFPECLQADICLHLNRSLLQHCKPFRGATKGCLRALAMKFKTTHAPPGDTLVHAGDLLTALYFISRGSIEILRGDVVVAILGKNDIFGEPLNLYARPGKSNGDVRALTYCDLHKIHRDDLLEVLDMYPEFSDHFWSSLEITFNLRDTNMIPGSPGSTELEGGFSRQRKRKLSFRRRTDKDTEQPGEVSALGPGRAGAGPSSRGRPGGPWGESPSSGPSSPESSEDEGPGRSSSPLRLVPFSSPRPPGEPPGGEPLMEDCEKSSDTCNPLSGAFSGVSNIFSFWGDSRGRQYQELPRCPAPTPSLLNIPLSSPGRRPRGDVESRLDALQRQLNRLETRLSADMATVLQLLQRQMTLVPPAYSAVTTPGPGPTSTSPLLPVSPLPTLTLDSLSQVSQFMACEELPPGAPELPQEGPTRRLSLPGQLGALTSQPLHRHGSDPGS
row,SMILES,"hERG current change (%, negative = inhibition) at 10uM [%]"
1,O=C(Nc1nnc(COc2ccc(F)cc2)s1)Nc1ccccc1F,10.5
2,CC(C)(C)NC(=O)CSc1ncnc2c1cnn2-c1ccccc1,-1.27
3,CCOc1ccc2nc(SC(C)C(N)=O)[nH]c2c1 (stereo not drawn),14.4
4,NC(=O)c1cc(C(=O)c2ccc(Cl)cc2)c[nH]1,17.6
5,O=C(NCCc1nc2ccccc2[nH]1)/C(=C/c1ccc2c(c1)OCO2)NC(=O)c1ccccc1,-71.1
6,COc1ccc(C(=O)C2=NN(C(C)=O)CC2c2ccco2)cc1 (stereo not drawn),2.27
7,CCN(CC)S(=O)(=O)c1ccc2c(c1)nc(SCC(=O)NC1CC1)n2-c1ccccc1OC,-56.2
8,C/C(=N/NC(=O)c1ccoc1C)c1ccc(NC(=O)c2ccncc2)cc1,-0.357
9,Cc1ccccc1NS(=O)(=O)c1cccc2nonc12,2.34
10,CCCn1nc2cc(C(=O)NCc3ccccc3)ccc2c1OCC,-8.07
11,CN1CCN(c2nc(-c3ccc(C(C)(C)C)cc3)nc3ccccc23)CC1.Cl,-2.05
12,COc1ccc2nc(NC(=O)C3CSC4(C)CCC(=O)N34)sc2c1 (stereo not drawn),-23.1
13,COc1ccc(CN(Cc2nc3ccccc3c(=O)[nH]2)C(=O)c2ccco2)cc1,-3.68
14,CC(=O)c1cc(NC(=O)c2ccc(Cl)cc2)c(=O)oc1/C=C/N(C)C,-13.5
15,Cc1cccc(-n2cnc(C(=O)NNC(=S)Nc3ccc(Cl)cc3)c2)n1,-1.74
16,CSc1ccccc1C(=O)C1CCCN(C(=O)CCN2CCCO2)C1 (stereo not drawn),7.34
17,COc1ccc(NC(=O)Nc2nc(C)cc(C)n2)c(OC)c1,-23
18,C[C@@]12C(=O)Nc3cc(Cl)ccc3C(=O)N1[C@H]1c3cc(Br)ccc3OC[C@@H]1[C@@H]2c1ccccc1,14.3
19,Cc1ccc(N2CC(C(=O)OCC(=O)c3ccc([N+](=O)[O-])cc3)CC2=O)cc1 (stereo not drawn),-26.8
20,O=C(C(=O)N1CCCC1CO)N1CCCC1CO (stereo not drawn),12.8
21,COc1cc(/C=C/c2cccc[n+]2C)ccc1OCC(=O)Nc1cccc(Cl)c1.[I-],-13.3
22,O=[N+]([O-])c1ccc(COP(=O)([O-])OCc2ccc([N+](=O)[O-])cc2)cc1.[Na+],4.2
23,CCOC(=O)C(NCCc1ccccc1F)(NC(=O)CC)C(F)(F)F (stereo not drawn),-0.945

row,SMILES,"hERG current change (%, negative = inhibition) at 10uM [%]"
1,CCOC(=O)N1CCN(CCC(=O)Nc2ccc(OC)cc2OC)CC1,11.1
2,Cc1ccccc1C(=O)NCCCNC(=O)c1ccco1,24.4
3,O=C(NCC(c1cccs1)N1CCOCC1)c1cn(-c2ccccc2)nc1-c1ccc(Cl)cc1 (stereo not drawn),6.82
4,O=C(O)c1ccc(NCc2cccs2)cc1,3.22
5,COc1ccc(CN2CCc3ccccc3C2)c(OC)c1,-28.4
6,O=C(O)CCC(=O)Nc1cccc(C(=O)Nc2ccc(Br)cc2)c1,7.43
7,CCN(CC)CCCNc1nnc(C)c(=O)[nH]1,2.82
8,COc1ccc(Cl)cc1NC(=O)CCc1nnc2ccc(N3CCN(C)CC3)nn12,3.16
9,CCc1c(C)sc(NC(=O)C2CCCO2)c1C#N (stereo not drawn),-3.74
10,CC(C)C(=O)Nc1nnc(Sc2ccc(N(C)C)cc2)s1,16.4
11,COc1cc(OC)c(OC)cc1NC(=O)CC1COc2ccccc2O1 (stereo not drawn),-6.05
12,O=C(CCCN1C(=O)c2ccccc2C1=O)NCc1ccc(F)cc1,-21.2
13,CCn1c(SCC(=O)Nc2nccs2)nnc1-c1ccco1,-10.7
14,COc1ccc(NC(=O)C2CCCN(S(=O)(=O)c3cccc4nonc34)C2)cc1 (stereo not drawn),34.7
15,CC(=O)Nc1nc2c(C)cc(NC(=O)C3CCCCC3)cc2s1,3.53
16,Cc1ccc(NC(=O)Cn2ccnc2)cc1C,-0.47
17,COc1ccc(C[C@H](N)C(=O)N[C@H]2[C@@H](O)[C@H](n3cnc4c(N(C)C)ncnc43)O[C@@H]2CO)cc1.Cl,-5.25
18,CCCCOCCCNS(=O)(=O)Cc1ccccc1,-14.5
19,COc1ccc(CNC(=O)C(C)OC(=O)CCN2C(=O)C3CC=CCC3C2=O)cc1 (stereo not drawn),-10.6
20,Cc1ccccc1C1CC(c2ccc(F)cc2)Nc2nc(N)nn21 (stereo not drawn),-27.2
21,Cc1cccc(C(=O)OC(C)CN2CCCC2)c1.Cl (stereo not drawn),10.5
22,Cc1nc2sc3c(c2c(=O)o1)CCCC3,-7.03
23,O=C(NC(=S)NNS(=O)(=O)c1ccccc1)c1cccnc1,28.1

row,SMILES,"hERG current change (%, negative = inhibition) at 10uM [%]"
1,COc1cccc(CNC(=S)NC2CC2)c1,24.9
2,CCOC(=O)Cc1csc(NC(=O)/C=C/c2ccccc2Cl)n1,2.82
3,Cc1onc(-c2ccccc2)c1CNC(=O)C1COc2ccccc2O1 (stereo not drawn),-23
4,O=C(Cn1cnc2cc([N+](=O)[O-])ccc2c1=O)NCc1ccccc1,-8.19
5,CCOC(=O)C(NC(C)=O)(NC(C)C)C(F)(F)F (stereo not drawn),16.5
6,CCOC(=O)N1CCC(N2CCCC(C(=O)c3cc(C)c(OC)c(C)c3)C2)CC1 (stereo not drawn),-57.3
7,COc1ccc(C)cc1NC(=O)C1COc2ccccc2O1 (stereo not drawn),14.9
8,CC(C)C(=O)Nc1ccc(N2CCN(c3ccc(F)cc3)CC2)cc1,16.1
9,CSCC[C@H](NC(=O)N1CCn2c1nc1ccccc12)C(=O)N[C@@H](C(=O)O)c1ccccc1,4.3
10,COc1cccc(C2=NOC(C(=O)Nc3ccc(C(C)=O)cc3)C2)c1 (stereo not drawn),-25.2
11,CC1CC(C)CN(CC(=O)N2CCOCC2)C1.Cl (stereo not drawn),0.0259
12,COC(=O)c1ccc(C(=O)N(C)C2CCCN(Cc3ccccc3F)C2)cc1 (stereo not drawn),-2.39
13,CC(C(=O)OCC(=O)Nc1ccc(S(=O)(=O)N2CCCCC2)cc1)N1C(=O)c2ccccc2C1=O (stereo not drawn),-16.4
14,Cc1ccc(NC(=O)c2cccc(S(=O)(=O)N(C)c3ccccc3)c2)cc1S(=O)(=O)N1CCOCC1,9.04
15,Cc1ccc(NC(=O)COC(=O)C2CC2)c(Br)c1,8.63
16,Cn1c(=O)c2c(nc(CN3CCC(C(N)=O)CC3)n2Cc2ccccc2Cl)n(C)c1=O,1.84
17,Cc1ccc(C2N(c3nccs3)C(=O)C3CCCN32)cc1 (stereo not drawn),-4.54
18,O=C(Nc1ccc2nc(-c3ccccc3)[nH]c2c1)c1cccs1,-23.9
19,COC(=O)CCN(C(=O)c1cccc(OC(C)=O)c1)c1ccccn1,4.73
20,O=S(=O)(NC1CCSc2ccccc21)c1ccc(Cl)nc1 (stereo not drawn),-18.1
21,COc1ccc2c(C)cc3n[nH]c(=S)n3c2c1,12.9
22,CC1/C(=N/O)CC(c2ccccc2)N(C)C1c1ccccc1 (stereo not drawn),14.3
23,CNC(=S)NNC(=O)Cn1ccc(C)n1,1.51

row,SMILES,"hERG current change (%, negative = inhibition) at 10uM [%]"
1,Cc1ccc(Nc2nc3c([nH]2)c(=O)n(C)c(=O)n3C)cc1,-10.1
2,COc1cccc(NC(=O)c2cccc(OC)c2OC)c1,-0.56
3,CCOCCCNC(=O)c1ccc(N(C)S(=O)(=O)c2ccc(OC)cc2)cc1,8.62
4,O=C(O)Cc1ccc(-c2ccccc2-c2ccccc2)cc1,6.8
5,CC(C)N(C(=O)COC(=O)CNC(=O)c1ccc(Br)cc1)c1ccccc1,-15.5
6,CNS(=O)(=O)c1cc2c3c(cccc3c1)C(=O)NC2=O,11.9
7,COc1ccc(C(=O)n2c(SC)nc3cc4c(cc32)OCCO4)cc1,12
8,Oc1c(Cl)cc(Cl)cc1/C=N/c1nccs1,-11.8
9,O=C(/C=C/c1ccccc1)OCCN1C(=O)c2ccccc2C1=O,13.4
10,COc1ccccc1CNC(=O)C(=O)NCC1OCCN1S(=O)(=O)c1ccc(Br)cc1 (stereo not drawn),-2.19
11,COc1cccc(/C=C2\SC(=O)N(CCC(=O)N3CCCCC3CCO)C2=O)c1 (stereo not drawn),-14.6
12,CN(C)c1ccc(/C=N/NC(=O)CNC(=O)/C=C/c2ccccc2)cc1,5.26
13,C1=CC2=NC34CCCCC3CC3=C(CCCC3)N4C2=CC1=NC1CCCCC1 (stereo not drawn),-18.9
14,O=C(Cn1nc(-c2ccc(Cl)cc2)c2ccccc2c1=O)NCC1CCCO1 (stereo not drawn),5.51
15,CCS(=O)(=O)NCCNc1ccc([N+](=O)[O-])cc1,-38.2
16,O=C(O)COc1ccc(Cl)cc1CO,-0.991
17,COc1ccc(Cl)cc1NC(=O)Cn1nnc(C(=O)NCCc2ccc(OC)c(OC)c2)c1N,15
18,CCOc1ccc(N(CC(=O)Nc2ccccc2OC)S(=O)(=O)c2ccccc2)cc1,6.69
19,Cc1ccc(OC(=O)CCS(=O)(=O)c2ccc(C)cc2)cc1,-24.4
20,Cc1cc2c(c(=O)o1)C(Cc1ccccc1)C(C#N)=C(N)O2 (stereo not drawn),14
21,CCOC(=O)c1cc(-c2csc(COc3ccccc3)n2)on1,3.35
